Data set [1] can be described thus: Acute toxicity (LD50) in adult T. molitor Coleoptera (TMC) after injection in the hemocoel. Particulars: Tenebrio molitor, in vivo, 2000 mg/kg. The method, then: The literature was carefully studied to identify the starting dose of a panel of drugs; however, when no data were available, the protocol described in Figure 1 was adopted, using 1 TMC and starting from the dose of 200 mg/kg.
The protocol depicted in Figure 2 has been adopted to determine LD50, starting from the opportune dose determined as described above. A panel of 20 drugs available on the market, including antivirals, antibiotics and the representative drugs for several pharmaceutical classes, was analyzed (Table 2).
Figure 2 Flowchart for LD50 determination. Starting from the opportune initial dose, LD50 was determined by changing the dose based on results and increasing the number of […] for final determinations. GHS cat.: Globally Harmonized System category. The numbers on the circles represent the number of deaths in exemplars.
TMC were randomly selected for toxicity assessment. TMC older than 3 days were discarded.
Acute toxicity was determined following the Organization for Economic Cooperation and Development (OECD) guidelines for acute toxicity of chemicals. All the available information on the test substance was considered to select the toxic dose of test compounds. Data were collected considering LD50 already reported for humans, rats and mice or, when possible, insects (e.g., Galleria mellonella). The initial dose, expressed in mg/kg, was calculated as the lowest LD50 reported in the literature. When no data were found in the literature, the starting dose of 200 mg/kg was used and the range-finding study was conducted with 1 TMC, by adapting OECD guidelines (Figure 1). To perform LD50 calculation study, 5 TMC were injected with the selected dose, and mortality was recorded daily for 7 days. Each experiment included 1 control group treated with DMSO. […] If 1 or less TMC died, the experiment was performed with a higher dose. If 2 or 3 TMC died, the experiment was repeated by re-testing the initial dose with 10 TMC. […] The experiment continued until a toxic dose was determined.

Data set [2] has as its system Mice. The note with it: cited from earlier work.
In data set [3] the test system is Rats. The note with it: cited from earlier work.
For data set [4] the following is noted: PK literature data; cited from earlier work.

Regarding `CN1C(=O)CN=C(c2ccccc2)c2cc(Cl)ccc21` [Diazepam], the LD50 (as a rule, the dose expected to kill half of the subjects tested) at 7 days in data set [1] was found to be 50 mg/kg. Moreover, in data set [2], the “LD50 Mice ip” value was 37 mg/kg and the “LD50 Mice iv” value is 25 mg/kg. Also, in data set [3], the “LD50 Rats ip” value is recorded as 46.5 mg/kg and the “LD50 Rats iv” value is 32 mg/kg.
For `NS(=O)(=O)c1cc(C(=O)O)c(NCc2ccco2)cc1Cl` [Furosemide], the Vd (in general, a proportionality between amount in the body and measured concentration, not a real space) in data set [4] is 0.07 to 0.2 L/kg. The compound further gave an LD50 at 7 days in data set [1] (other: injection in the hemocoel) of 300 mg/kg. Also, the “LD50 Mice iv” value in data set [2] was 308 mg/kg. Moreover, in data set [3], the “LD50 Rats ip” value is on record as 800 mg/kg and the “LD50 Rats iv” value is on record as 800 mg/kg.
Regarding `CN(C)CCOC(c1ccccc1)c1ccccc1` [Diphenhydramine], the LD50 at 7 days in data set [1] was 50 mg/kg. For the same compound, the “LD50 Mice ip” value in data set [2] is reported as 56 mg/kg. In addition, the “LD50 Rats iv” value in data set [3] is reported as 42 mg/kg.

These data come from paper PMC9917132, “Tenebrio molitor as a Simple and Cheap Preclinical Pharmacokinetic and Toxicity Model” (International Journal of Molecular Sciences, 2023).
